Measured values taken from article PMC12820563, “FoxP3 forms a head-to-head dimer in vivo and stabilizes its multimerization on adjacent microsatellites”.
The other results are listed elsewhere or left out.

What follows are sequences tested against T1, MBP-FoxP1dN (Mus musculus, UniProt P58462 326-579) (assay: PD-seq (MBP pull-down with sequencing); 20 mM Tris-HCl pH 7.5, 100 mM NaCl, 1.5 mM MgCl2, 0.4 uM protein, 0.1 uM dsDNA library, 30 min, room temperature, amylose pull-down; high values mean tight binding). Conditions: protein: recombinant; tags: His6-MBP; chain copies: 2; dsDNA, one strand shown.
T1 sequence: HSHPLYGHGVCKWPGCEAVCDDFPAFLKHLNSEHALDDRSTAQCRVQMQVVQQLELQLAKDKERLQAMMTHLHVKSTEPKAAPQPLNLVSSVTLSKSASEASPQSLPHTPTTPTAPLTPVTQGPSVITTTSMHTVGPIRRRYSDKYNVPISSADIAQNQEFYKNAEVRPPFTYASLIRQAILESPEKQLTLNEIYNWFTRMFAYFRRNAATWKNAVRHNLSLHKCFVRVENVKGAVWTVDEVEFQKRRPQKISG
Procedure, shortened: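 Amylose resin was used to capture complexes formed during 30 min at room temperature in Tris pH 7.5 buffer with NaCl and MgCl2 between 0.4 µM His6-MBP-tagged mouse FoxP3 or FoxP1 fragment lacking the N-terminus, expressed in E. coli, and 0.1 µM Klenow-filled double-stranded degenerate DNA library. After three washes, the DNA was released with proteinase K, barcoded by PCR and sequenced on Illumina. Binding is pooled-replicate reads-per-million enrichment, pull-down over input.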

Row | Sequence | binding signal
1 | GATGATTGTTCTCCCAGCTGATGAATTCACGTTCTCGAGTAAACAAATTTTCCTAATCTTTCTGTTCAAGCGCCATCTAC | 0.852 RPM ratio (pull-down/input)
2 | GATGATTGTTCTCCCAGCTGATGAATTTTTGTCATCGAGTAAACAAATTTTCCTAATCTTTCTGTTCAAGCGCCATCTAC | 1.39 RPM ratio (pull-down/input)
3 | GATGATTGTTCTCCCAGCTGATGAATTTGGTTCCTCGAGTAAACAAATTTTCCTAATCTTTCTGTTCAAGCGCCATCTAC | 0.82 RPM ratio (pull-down/input)
4 | GATGATTGTTCTCCCAGCTGATGAATTGGCCATATCGAGTAAACAAATTTTCCTAATCTTTCTGTTCAAGCGCCATCTAC | 0.87 RPM ratio (pull-down/input)
5 | GATGATTGTTCTCCCAGCTGATGAATTCGAGTCTTCGAGTAAACAAATTTTCCTAATCTTTCTGTTCAAGCGCCATCTAC | 0.874 RPM ratio (pull-down/input)
6 | GATGATTGTTCTCCCAGCTGATGAATTCCGTCTATCGAGTAAACAAATTTTCCTAATCTTTCTGTTCAAGCGCCATCTAC | 0.859 RPM ratio (pull-down/input)
7 | GATGATTGTTCTCCCAGCTGATGAATTGACTTTTTCGAGTAAACAAATTTTCCTAATCTTTCTGTTCAAGCGCCATCTAC | 1.09 RPM ratio (pull-down/input)
8 | GATGATTGTTCTCCCAGCTGATGAATTATGACCTTCGAGTAAACAAATTTTCCTAATCTTTCTGTTCAAGCGCCATCTAC | 0.925 RPM ratio (pull-down/input)
9 | GATGATTGTTCTCCCAGCTGATGAATTCGTGACCTCGAGTAAACAAATTTTCCTAATCTTTCTGTTCAAGCGCCATCTAC | 0.802 RPM ratio (pull-down/input)
10 | GATGATTGTTCTCCCAGCTGATGAATTCTTTCGTTCGAGTAAACAAATTTTCCTAATCTTTCTGTTCAAGCGCCATCTAC | 0.894 RPM ratio (pull-down/input)
11 | GATGATTGTTCTCCCAGCTGATGAATTGCTCGACTCGAGTAAACAAATTTTCCTAATCTTTCTGTTCAAGCGCCATCTAC | 0.946 RPM ratio (pull-down/input)
12 | GATGATTGTTCTCCCAGCTGATGAATTTTCGGCATCGAGTAAACAAATTTTCCTAATCTTTCTGTTCAAGCGCCATCTAC | 1.1 RPM ratio (pull-down/input)
13 | GATGATTGTTCTCCCAGCTGATGAATTGCGATAGTCGAGTAAACAAATTTTCCTAATCTTTCTGTTCAAGCGCCATCTAC | 1.05 RPM ratio (pull-down/input)
14 | GATGATTGTTCTCCCAGCTGATGAATTCTTAATGTCGAGTAAACAAATTTTCCTAATCTTTCTGTTCAAGCGCCATCTAC | 1.21 RPM ratio (pull-down/input)
15 | GATGATTGTTCTCCCAGCTGATGAATTCACCTCATCGAGTAAACAAATTTTCCTAATCTTTCTGTTCAAGCGCCATCTAC | 0.832 RPM ratio (pull-down/input)
16 | GATGATTGTTCTCCCAGCTGATGAATTTAACCACTCGAGTAAACAAATTTTCCTAATCTTTCTGTTCAAGCGCCATCTAC | 0.966 RPM ratio (pull-down/input)
17 | GATGATTGTTCTCCCAGCTGATGAATTACCTATATCGAGTAAACAAATTTTCCTAATCTTTCTGTTCAAGCGCCATCTAC | 1.08 RPM ratio (pull-down/input)
18 | GATGATTGTTCTCCCAGCTGATGAATTTGCATGGTCGAGTAAACAAATTTTCCTAATCTTTCTGTTCAAGCGCCATCTAC | 1.02 RPM ratio (pull-down/input)
